The chains are these.
B1: Caulobacter ParB omega fusion; a variant is named by its letters at X, in order, B8GW30 (parent)
chain: MESVVVGEPGMSEGRRGLGRGLSALLGEVDAAPAQAPGEQLGGSREAPIEILQRNPDQPRRTFREEDLEDLSNSIREKGVLQPILVRPSPDTAGEYQIVAGERAWRAAQRAGLKTVPIMVRELDDLAVLEIGIIENVQRADLNVLEEALSYKVLMEKFERTQENIAQTIGKSXSHVANXMRLLXLPDEVQSYLVSGELTAXHARAIAAAADPVALAKQIIEGGLSVRETEALARKAPNLSAGKSKGGRPPRVKDTDTQALESDLSSVLGLDVSIDHRGSTGTLTITYATLEQLDDLCNRLTRGI

The full ranking holds about 81,000 sequences; the median of “one-hybrid fitness for binding parS DNA” is about -0.17, and the highest 2% start at about 0.51. The list shows a part of the results.

The variants in the experiment derive from B1. Briefly: one-hybrid fitness for binding parS DNA (scaled: cognate 1, non-cognate 0); higher = stronger binding. The following applies: with parS DNA site. The method in brief:
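The reporter was HIS3, with the binding site 19 bp from the promoter, in E. coli USO used for bacterial one-hybrid selection of Caulobacter ParB libraries with four specificity codons randomised. Growth was on M9 lacking histidine, with 0.1 mM IPTG and 5 mM 3-AT, for 48 hours at 37°C. Illumina sequencing covered plasmids before and after selection; three replicate libraries were pooled and variants with under 10 reads dropped. A fitness score is the log change in variant-to-wild-type read ratio, rescaled to the cognate and non-cognate references.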
Regarding MTCC, the “one-hybrid fitness for binding parS DNA” value was ≤ 0.2.
With MPVM, the “one-hybrid fitness for binding parS DNA” value was ≤ 0.2.
Under KFCR stands ≤ 0.2.
Consider KRGL, for which the “one-hybrid fitness for binding parS DNA” value was ≤ 0.2.
For the variant EKSN, the “one-hybrid fitness for binding parS DNA” value was ≤ 0.2.
Turning to WNTT, the “one-hybrid fitness for binding parS DNA” value was ≤ 0.2.
Under LLNS stands ≤ 0.2; under MFNG, ≤ 0.2.
Next, HKVG: ≤ 0.2; QLNL: ≤ 0.2.
Regarding GTRF, the “one-hybrid fitness for binding parS DNA” value is ≤ 0.2.
Consider NLMV, for which the “one-hybrid fitness for binding parS DNA” value is ≤ 0.2.
Under STVP stands ≤ 0.2; under RLNY, 0.495.
Consider KYTV, for which the “one-hybrid fitness for binding parS DNA” value is ≤ 0.2.
As for RVFI, the “one-hybrid fitness for binding parS DNA” value was ≤ 0.2.
Next, TTHP: ≤ 0.2; MCGA: ≤ 0.2.
Regarding KCLT, the “one-hybrid fitness for binding parS DNA” value is ≤ 0.2.
QPHC: the “one-hybrid fitness for binding parS DNA” value is ≤ 0.2.
As for SGSK, the “one-hybrid fitness for binding parS DNA” value is ≤ 0.2.
IRTI: the “one-hybrid fitness for binding parS DNA” value is ≤ 0.2.
In the case of MGTY, the “one-hybrid fitness for binding parS DNA” value was ≤ 0.2.
Turning to TRYS, the “one-hybrid fitness for binding parS DNA” value is ≤ 0.2.
Under QTEQ stands ≤ 0.2.
As for IYVR, the “one-hybrid fitness for binding parS DNA” value was ≤ 0.2.
Turning to VNHT, the “one-hybrid fitness for binding parS DNA” value was ≤ 0.2.
Turning to RWRY, the “one-hybrid fitness for binding parS DNA” value amounted to 0.494.
Next, ATPM: ≤ 0.2.
For the variant MKVC, the “one-hybrid fitness for binding parS DNA” value is ≤ 0.2.
Under WLVS stands ≤ 0.2; under IINP, ≤ 0.2; under FRLL, ≤ 0.2.
WASG: the “one-hybrid fitness for binding parS DNA” value is ≤ 0.2.
Turning to RYWQ, the “one-hybrid fitness for binding parS DNA” value is ≤ 0.2.
For PYFF, the “one-hybrid fitness for binding parS DNA” value was ≤ 0.2.
In the case of CMRG, the “one-hybrid fitness for binding parS DNA” value was ≤ 0.2.
On to HDNT, for which the “one-hybrid fitness for binding parS DNA” value was ≤ 0.2.
Regarding RGIL, the “one-hybrid fitness for binding parS DNA” value was ≤ 0.2.
With HSLF, the “one-hybrid fitness for binding parS DNA” value is ≤ 0.2.
For the variant QNVF, the “one-hybrid fitness for binding parS DNA” value is ≤ 0.2.
As to YFDC, the “one-hybrid fitness for binding parS DNA” value was ≤ 0.2.
In the case of VTST, the “one-hybrid fitness for binding parS DNA” value is ≤ 0.2.
For MTEL, the “one-hybrid fitness for binding parS DNA” value is ≤ 0.2.
CMNR: the “one-hybrid fitness for binding parS DNA” value was ≤ 0.2.
With PVGG, the “one-hybrid fitness for binding parS DNA” value is ≤ 0.2.
Consider LNKC, for which the “one-hybrid fitness for binding parS DNA” value was ≤ 0.2.
Turning to ATPF, the “one-hybrid fitness for binding parS DNA” value was ≤ 0.2.
As for EMGG, the “one-hybrid fitness for binding parS DNA” value was ≤ 0.2.
With EWTS, the “one-hybrid fitness for binding parS DNA” value is ≤ 0.2.
Turning to TVFT, the “one-hybrid fitness for binding parS DNA” value was ≤ 0.2.
Turning to DRGH, the “one-hybrid fitness for binding parS DNA” value is ≤ 0.2.
As to NIPW, the “one-hybrid fitness for binding parS DNA” value is ≤ 0.2.
As for QDDF, the “one-hybrid fitness for binding parS DNA” value was ≤ 0.2.
Take MYTG: the “one-hybrid fitness for binding parS DNA” value was ≤ 0.2.
Regarding HMIC, the “one-hybrid fitness for binding parS DNA” value was ≤ 0.2.
As for QNPL, the “one-hybrid fitness for binding parS DNA” value is ≤ 0.2.
For RTHN, the “one-hybrid fitness for binding parS DNA” value was 0.45.
In the case of FGCG, the “one-hybrid fitness for binding parS DNA” value was ≤ 0.2.
QKNA: the “one-hybrid fitness for binding parS DNA” value is ≤ 0.2.
For QCVD, the “one-hybrid fitness for binding parS DNA” value is ≤ 0.2.
Consider GESG, for which the “one-hybrid fitness for binding parS DNA” value was ≤ 0.2.
Take TVRV: the “one-hybrid fitness for binding parS DNA” value is ≤ 0.2.
Next, ETGA: ≤ 0.2; IQQR: ≤ 0.2; RARA: 0.658.
For PDKT, the “one-hybrid fitness for binding parS DNA” value was ≤ 0.2.
Regarding DQSR, the “one-hybrid fitness for binding parS DNA” value was ≤ 0.2.
As for TFGG, the “one-hybrid fitness for binding parS DNA” value was ≤ 0.2.
Take PYTM: the “one-hybrid fitness for binding parS DNA” value was ≤ 0.2.
Next, VNKS: ≤ 0.2.
Next, ADSF: ≤ 0.2; ITNH: ≤ 0.2.
Turning to MRVS, the “one-hybrid fitness for binding parS DNA” value is ≤ 0.2.
Consider YNQR, for which the “one-hybrid fitness for binding parS DNA” value was ≤ 0.2.
As for TYQG, the “one-hybrid fitness for binding parS DNA” value was ≤ 0.2.
For the variant RNVH, the “one-hybrid fitness for binding parS DNA” value was determined as 0.202.
Turning to SWLR, the “one-hybrid fitness for binding parS DNA” value was ≤ 0.2.
As for KTKT, the “one-hybrid fitness for binding parS DNA” value was ≤ 0.2.
On to HDSR, for which the “one-hybrid fitness for binding parS DNA” value is ≤ 0.2.
For the variant LENT, the “one-hybrid fitness for binding parS DNA” value is ≤ 0.2.
As to CSNH, the “one-hybrid fitness for binding parS DNA” value is ≤ 0.2.
In the case of MRES, the “one-hybrid fitness for binding parS DNA” value was ≤ 0.2.
In the case of RHKS, the “one-hybrid fitness for binding parS DNA” value was 0.777.
With RIKT, the “one-hybrid fitness for binding parS DNA” value came to 0.772.
LRQV: the “one-hybrid fitness for binding parS DNA” value is ≤ 0.2.
As to EMHT, the “one-hybrid fitness for binding parS DNA” value was ≤ 0.2.
Regarding GMFT, the “one-hybrid fitness for binding parS DNA” value is ≤ 0.2.
Under CYLN stands ≤ 0.2; under IFAT, ≤ 0.2.
On to ANVY, for which the “one-hybrid fitness for binding parS DNA” value was ≤ 0.2.
As to HTPC, the “one-hybrid fitness for binding parS DNA” value was ≤ 0.2.
Next, NLDR: ≤ 0.2.
Next, SHAC: ≤ 0.2.
As to RGHE, the “one-hybrid fitness for binding parS DNA” value was ≤ 0.2.
TMTN: the “one-hybrid fitness for binding parS DNA” value was ≤ 0.2.
Under DTST stands ≤ 0.2.
In the case of SKNR, the “one-hybrid fitness for binding parS DNA” value was ≤ 0.2.
Consider KFVF, for which the “one-hybrid fitness for binding parS DNA” value was ≤ 0.2.
As to KANG, the “one-hybrid fitness for binding parS DNA” value is ≤ 0.2.
Next, RPRT: ≤ 0.2.
In the case of QSWV, the “one-hybrid fitness for binding parS DNA” value is ≤ 0.2.
On to DPAT, for which the “one-hybrid fitness for binding parS DNA” value is ≤ 0.2.
As to SMEA, the “one-hybrid fitness for binding parS DNA” value is ≤ 0.2.
Take RANM: the “one-hybrid fitness for binding parS DNA” value turned out to be 0.329.
As to PVDV, the “one-hybrid fitness for binding parS DNA” value was ≤ 0.2.
Regarding LYYI, the “one-hybrid fitness for binding parS DNA” value was ≤ 0.2.
With KCGL, the “one-hybrid fitness for binding parS DNA” value was ≤ 0.2.
Take KFNY: the “one-hybrid fitness for binding parS DNA” value was ≤ 0.2.
Regarding ICKM, the “one-hybrid fitness for binding parS DNA” value is ≤ 0.2.
On to DWSI, for which the “one-hybrid fitness for binding parS DNA” value was ≤ 0.2.
Next, SGAW: ≤ 0.2; QQDW: ≤ 0.2; LSNC: ≤ 0.2.
Next, NCAC: ≤ 0.2; STGF: ≤ 0.2; MTRY: ≤ 0.2.
Next, TVLG: ≤ 0.2; RCKS: 0.836; RAVI: ≤ 0.2.
Consider RTCG, for which the “one-hybrid fitness for binding parS DNA” value is 0.999.
In the case of DFIG, the “one-hybrid fitness for binding parS DNA” value was ≤ 0.2.
Regarding TAVQ, the “one-hybrid fitness for binding parS DNA” value is ≤ 0.2.
In the case of TLMY, the “one-hybrid fitness for binding parS DNA” value was ≤ 0.2.
Consider HRWN, for which the “one-hybrid fitness for binding parS DNA” value is ≤ 0.2.
Consider ISCY, for which the “one-hybrid fitness for binding parS DNA” value is ≤ 0.2.
As for GDWL, the “one-hybrid fitness for binding parS DNA” value was ≤ 0.2.
Next, LAEP: ≤ 0.2; CTTG: ≤ 0.2; GQIS: ≤ 0.2.
Next, FGNC: ≤ 0.2; QFSK: ≤ 0.2.
Under SLTK stands ≤ 0.2.
Take ENRG: the “one-hybrid fitness for binding parS DNA” value was ≤ 0.2.
Under TGQR stands ≤ 0.2; under SHEK, 0.249; under QKGD, ≤ 0.2.
Consider LVSF, for which the “one-hybrid fitness for binding parS DNA” value is ≤ 0.2.
Turning to QYNF, the “one-hybrid fitness for binding parS DNA” value was ≤ 0.2.
Consider VTVE, for which the “one-hybrid fitness for binding parS DNA” value is ≤ 0.2.
For CQRM, the “one-hybrid fitness for binding parS DNA” value was ≤ 0.2.
Under APIL stands ≤ 0.2.
Consider HLHF, for which the “one-hybrid fitness for binding parS DNA” value was ≤ 0.2.
Next, ECMP: ≤ 0.2.
Regarding CWKR, the “one-hybrid fitness for binding parS DNA” value is ≤ 0.2.
Regarding FKAA, the “one-hybrid fitness for binding parS DNA” value was ≤ 0.2.
As to HLIV, the “one-hybrid fitness for binding parS DNA” value is ≤ 0.2.
Under RPTL stands ≤ 0.2; under DLYS, ≤ 0.2.
Under GLGL stands ≤ 0.2; under RREM, ≤ 0.2; under YLEY, ≤ 0.2.
Next, STQM: ≤ 0.2.

The values are drawn from a collection of fitness landscapes (doi:10.1016/j.celrep.2020.107928).
